# In PubChem BioAssay AID686979 (National Center for Advancing Translational Sciences (NCATS), 2013):
# Where “and” joins values, the source holds several entries; their conditions need not be identical. Identical values can stand only once. Out of some 420,000 compounds screened, about 50,000 (12%) were called active. Inconclusive means that the source gave no clear call. Such entries were picked first, then a sample of the others. The call rests on the fitted dose curve; in most records, active means well fitted inhibition curve with a large enough effect; inconclusive means small, poorly fitted or top-dose-only effect; inactive means flat fitted curve, though single readings scatter. Potencies of inconclusive entries are doubtful fits and often do not repeat.
# Test: qHTS for Inhibitors of human tyrosyl-DNA phosphodiesterase 1 (TDP1): qHTS in cells in presence of CPT; further: nearly all actives have a fitted effect of over 55% in size
# Conditions: chicken DT40 Tdp1-/-;hTDP1 cells + 20 nM CPT, ATP luminescence, 48 h; activity change, negative = growth inhibition: at 46.2 µM (top of the series) unless noted
# Summary of the method: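 Cell growth measured by CellTiter-Glo luminescence after a minimum 48 h, 37 C compound exposure with 20 nM CPT in Tdp1-knockout DT40 cells stably expressing hTDP1, seeded 400/well; qHTS titration format.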
# On the % scale 0 is the no-effect control and ±100 the full control effect; potency means the concentration at half of the fitted maximal effect; tags describe the fitted curve by direction and shape.
Compound,Potency,"activity change, negative = growth inhibition"
NNC(=S)Nc1ccccc1Cl,"inconclusive: 29.1 µM [inhibitor, single point]",
COc1ccc(S(=O)(=O)N2CCN(C(=S)NC3CCCCC3)CC2)cc1,,inactive: 2.03%
CCOc1ccc(N(CC)S(=O)(=O)c2cccc3nsnc23)cc1,"inconclusive: 29.1 µM [inhibitor, single point]",
Cc1ccsc1CCN1C(=O)N(c2ccc(F)cc2)C(=O)C1CC(=O)Nc1ccccc1 (stereo not given),"inconclusive: 29.1 µM [inhibitor, single point]",
COc1cc(-c2noc(C3CC(=O)N(c4cc(C)ccc4C)C3)n2)cc(OC)c1OC (stereo not given),active: 18.4 µM,
C=C(C)COc1ccc(-c2nc(N)nc(C(F)(F)F)c2-c2ccc(OC)cc2)c(O)c1,"inconclusive: 29.1 µM [inhibitor, single point]",
COc1cccc(NS(=O)(=O)c2cc3c4c(c2)C(C)C(=O)N4CCC3)c1 (stereo not given),"inconclusive: 3.26 µM [inhibitor, partial curve]",
CC(C)c1ccc(C(=O)OCC(=O)NC2CCCC2)cc1,,inactive: -27.7%
COC(=O)C[C@H]1C=C[C@@H](NS(=O)(=O)c2ccccc2)[C@@H](CO)O1,,inactive: -1.89%
COc1cccc(Nc2n[nH]c(=S)s2)c1,,inactive: -15.5%
O=C(NCc1ccccc1Cl)C1CCCN(c2ncnc3c2nc2n3CCCCC2)C1 (stereo not given),"inconclusive: 25.9 µM [inhibitor, single point]",
O=C(CNC(=O)c1ccccc1)Oc1ccc([N+](=O)[O-])cc1,,inactive: -9.37%
Cc1cccc(C(=O)O[C@@H]2[C@H](Cc3ccccc3)NS(=O)(=O)[C@H]3C[C@@H]4C=C[C@]23O4)c1,"inconclusive: 18.4 µM [inhibitor, single point]",
O=C(NCc1nnc(SCc2ccccc2)n1-c1ccccc1)C12CC3CC(CC(C3)C1)C2,active: 14.6 µM,
C[C@@H]1CN([C@@H](C)CO)C(=O)Cc2cc(NC(=O)Nc3ccc(F)cc3)ccc2O[C@@H]1CN(C)Cc1ccc(Cl)c(Cl)c1,"inconclusive: 18.4 µM [inhibitor, single point]",
CCc1ccc(NC(=O)c2c(C(=O)Nc3ccccc3)sc3nc(C)cc(=O)n23)cc1,"inconclusive: 32.6 µM [inhibitor, single point] and inconclusive: 13 µM [inhibitor, partial curve]",
Fc1ccc(-c2cnc3n2CCCCC3)cc1,,inactive: -20.9%
CN1C(=O)Cc2cc(S(=O)(=O)CCC(=O)N3CCN(c4cccc(Cl)c4)CC3)ccc21,active: 20.6 µM,
Cc1ccccc1N=Cc1ccc[nH]1,,inactive: -0.753%
COc1ccccc1-c1sc2cc3c(cc2c1-c1ccc2c(c1)OCO2)OCO3,"inconclusive: 29.1 µM [inhibitor, single point]",
Cc1cn(C2CC3OCC3O2)c(=O)[nH]c1=O (stereo not given),,inactive: -10.8%
CCOc1ccc(NC(=O)Cn2cnc3c(oc4ccccc43)c2=O)cc1,,inactive: 1.78%
COc1ccc(-n2nnnc2SCC(=O)c2ccc3c(c2)OCCO3)c(OC)c1,"inconclusive: 20.6 µM [inhibitor, single point]",
COc1cc(C(=O)NCC(=O)NNC(=O)C2COc3ccccc3O2)cc(OC)c1OC (stereo not given),,inactive: -4%

Compound,Potency,"activity change, negative = growth inhibition"
O=C(Nc1ccc(Cl)c(S(=O)(=O)N2CCOCC2)c1)c1cccs1,,inconclusive: -33% [inhibitor]
COc1cc(NC(=O)c2cc3ccccc3o2)c(OC)cc1Br,"inconclusive: 20.6 µM [inhibitor, single point]",
COc1ccc2c(c1)c1c(c(=O)n(-c3cccc(C)c3)c(=O)n1CC(=O)N1CCCC1)n2C,"inconclusive: 29.1 µM [inhibitor, single point]",
O=C(NCc1c(Cl)cccc1Cl)c1ccc2nnsc2c1,,inconclusive: -34.5% [inhibitor]
CCN(CC)CCSc1nnc2c3ccccc3n(Cc3ccccc3)c2n1,active: 23.1 µM,
COC(c1ccccc1)c1nnc(CCC(=O)N(C)CCCC2CCCC2)o1 (stereo not given),"inconclusive: 20.6 µM [inhibitor, single point]",
COc1ccccc1N1CCN(CCN2C(=O)C3CCCCN3C2=O)CC1 (stereo not given),,inactive: 0.727%
CC(C)(C)OC(=O)N1CCC(c2c(C(=O)NCc3ccccn3)cnn2-c2ccc(F)cc2)CC1,"inconclusive: 4.61 µM [inhibitor, single point]",
C/C(=N\NC(=O)C1CC1c1ccccc1)c1cccs1 (stereo not given),"inconclusive: 11.6 µM [inhibitor, partial curve]",
CC1CCN(S(=O)(=O)c2ccc3c(c2)N(CC(=O)NCc2cccnc2)C(=O)CS3)CC1,"inconclusive: 29.1 µM [inhibitor, single point]",
COC(=O)c1ccc(N2Cc3ccccc3/C2=N\C(=O)Nc2ccccc2)cc1,"inconclusive: 1.64 µM [inhibitor, full curve, poor fit]",
CN(Cc1ncc[nH]1)Cc1cn(-c2ccccc2)nc1-c1ccc2c(c1)OCO2,"inconclusive: 23.1 µM [inhibitor, single point]",
CC(C)c1nc2sc3c(c2c(=O)[nH]1)CC(C)(C)OC3,,inactive: 3.74%
COc1cc(O)oc1C=Nc1ccc(C(=O)O)cc1,,inactive: -15.3%
CCOC(=O)C1(C)CCCCN1C(=O)c1ccoc1 (stereo not given),,inactive: -11.9%
CCOC(=O)C1CCCN(Cc2nc(N)nc(Nc3ccc(C)cc3)n2)C1 (stereo not given),"inconclusive: 20.6 µM [inhibitor, single point]",
CCC(C)NC(=O)c1ccc2c(c1)N=C(C)c1cc(C)ccc1S2 (stereo not given),active: 3.26 µM,
Nc1c(N=Nc2ccc([N+](=O)[O-])cc2)c(S(=O)(=O)O)cc2cc(S(=O)(=O)O)c(/C=C/c3ccccc3)c(O)c12,active: 10 µM,
Cc1nn(Cc2cccc(C(=O)Nc3ccn(Cc4ccccc4)n3)c2)c(C)c1[N+](=O)[O-],"inconclusive: 25.9 µM [inhibitor, single point]",
Cc1ccc(CSc2nc3c(c(SCC(=O)O)n2)CCCC3)cc1,"inconclusive: 18.4 µM [inhibitor, single point]",
NC(=O)CSC1=N/C(=C\c2ccco2)C(=O)N1c1ccc(OC(F)F)cc1,"inconclusive: 20.6 µM [inhibitor, single point]",
COc1ccc(C(=O)Nc2cc(OC)cc3cccnc23)cc1,"inconclusive: 18.4 µM [inhibitor, single point]",
C=CCNC(=S)N1CCN(c2ccccc2Cl)CC1,"inconclusive: 23.1 µM [inhibitor, single point]",
COCCCNc1nc(-c2ccc(Cl)cc2)nc2ccccc12,"inconclusive: 2.91 µM [inhibitor, single point]",

Compound,Potency,"activity change, negative = growth inhibition"
O=Cc1c(-c2ccccc2)nc2ccccn12,,inactive: -6.3%
CCc1nnc(NC(=O)CCC(=O)N2CCN(Cc3ccc(C)cc3C)CC2)s1,"inconclusive: 32.6 µM [inhibitor, single point]",
CCOc1ccc(NCc2cccn2-c2nnc(N3CCC(C(=O)NCc4cccc(OC)c4)CC3)s2)cc1,"inconclusive: 29.1 µM [inhibitor, single point]",
CCCn1cc(S(=O)(=O)c2cc(C)ccc2C)c(=O)c2cc(F)c(N3CCCCCC3)cc21,"inconclusive: 29.1 µM [inhibitor, single point]",
COC(=O)[C@]12CCCCC=C1N(CCC1=CCCCC1)C(=O)[C@H](CC(=O)N1CCSCC1)C2,"inconclusive: 20.6 µM [inhibitor, single point]",
COc1ccc(N=C2C(=O)N3CCCc4cccc2c43)cc1,"inconclusive: 20.6 µM [inhibitor, single point]",
CCCc1nc2sc3c(c2c(=O)n1NC(=O)CCCl)CCCC3,"inconclusive: 29.1 µM [inhibitor, single point]",
CCN1C(=O)c2ccccc2Sc2ccc(NC(=O)Cc3ccc(OC)cc3)cc21,,inactive: -3.35%
Cc1nn(-c2ccccc2)c2sc(C(=O)N3CCc4ccccc4C3)cc12,"inconclusive: 29.1 µM [inhibitor, single point]",
O=C1C2CC=CCC2C(=O)N1c1cccc(OS(=O)(=O)c2ccc3ccccc3c2)c1 (stereo not given),"inconclusive: 10.3 µM [inhibitor, partial curve, poor fit]",
C/C(CC(=O)Nc1ccc2c(c1)OCCO2)=N\NC(=O)c1ccccn1,,inactive: 1.35%
Cc1ccc(-n2c(C)cc(C(=O)COC(=O)c3c(C)noc3C)c2C)cc1,active: 9.2 µM,
COc1cccc(NC(=O)C(=O)NCCc2csc3nc(-c4ccccc4C)nn23)c1,"inconclusive: 20.6 µM [inhibitor, single point]",
C/C(=N\NC(=O)c1c(Cl)c(C)nn1C)c1cccc(NC(=O)COc2ccc(Cl)cc2)c1,"inconclusive: 20.6 µM [inhibitor, single point]",
CC(=O)N(CC1CCCO1)c1nnc(-c2ccccn2)s1 (stereo not given),,inactive: 1.57%
CCOC(=O)CN1C(=O)N[C@@H](c2cccc(F)c2)C(C(=O)OC)=C1C,"inconclusive: 32.6 µM [inhibitor, single point]",
COc1cc2c(cc1NC(=O)COC(=O)[C@@H](NC(=O)c1ccccc1F)C(C)C)oc1ccccc12,"inconclusive: 32.6 µM [inhibitor, single point]",
COC(=O)c1cc(S(=O)(=O)N2CCN(c3cccc(C)c3C)CC2)c[nH]1,"inconclusive: 13 µM [inhibitor, partial curve, poor fit]",
COc1cccc(CN(C)S(=O)(=O)c2c(C)noc2C)c1OC,,inactive: -22%
CCOC(=O)N1CCN(S(=O)(=O)c2ccc(C)c(C(=O)NC3CCCCC3)c2)CC1,,inactive: -3.97%
CCCC(C)c1nnc(NC(=O)CN2C(=O)c3ccccc3C2=O)s1 (stereo not given),,inactive: -29.4%
O=C(COC(=O)c1cc(=O)[nH]c2ccccc12)Nc1ccc(F)cc1,,inactive: -11.2%
